{"source": "PubChem BioAssay AID485344", "about": "(National Center for Advancing Translational Sciences (NCATS), 2010)", "note": "The campaign covered roughly 340,000 compounds. About 6,900 (2%) were called active. Cut-off read from the data, not from the text of the source: active = inhibition above about 30%; inactive = below that, where a call was filed. The list shows a part of the results, in another mix than the full data. Entries without a call were filed so in the source."}
{"target": "D(2) dopamine receptor (Homo sapiens) (UniProt P14416)", "sequence (P14416 whole entry, looked up)": "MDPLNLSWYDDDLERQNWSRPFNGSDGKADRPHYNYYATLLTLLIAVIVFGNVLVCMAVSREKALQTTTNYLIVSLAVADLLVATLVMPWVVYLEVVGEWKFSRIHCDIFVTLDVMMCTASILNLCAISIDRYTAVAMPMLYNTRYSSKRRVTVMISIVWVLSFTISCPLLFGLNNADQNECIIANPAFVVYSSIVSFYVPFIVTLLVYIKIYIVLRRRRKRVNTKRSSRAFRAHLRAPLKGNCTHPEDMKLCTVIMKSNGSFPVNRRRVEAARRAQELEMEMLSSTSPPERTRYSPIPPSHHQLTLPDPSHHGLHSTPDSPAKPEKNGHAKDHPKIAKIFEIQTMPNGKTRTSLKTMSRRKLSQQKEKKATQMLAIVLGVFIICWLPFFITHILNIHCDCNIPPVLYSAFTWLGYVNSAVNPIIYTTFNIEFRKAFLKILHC", "test": "HTS Assay for Allosteric Antagonists of the Human D2 Dopamine Receptor: Primary Screen for Antagonists; note: 0% is about no effect", "details": "HEK293 TREx D2 cells, calcium flux, dopamine EC80; at 10 µM; stronger effect = higher value", "method_in_brief": "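Tetracycline-induced HEK293 TREx cells expressing D2 receptor forced-coupled to calcium signalling, loaded with no-wash calcium dye. Compounds added and calcium flux read 180 s, then dopamine added at EC80 and read a further 180 s.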"}
{"smiles": "Cc1c(C(=O)NCCCN2CCCC2=O)oc2ccc(S(=O)(=O)N3CCOCC3)cc12", "inhibition": "active: 44.3%"}
{"smiles": "COCCOCC(O)CN1CCN(c2ccccc2)CC1", "note": "(configuration not stated)", "inhibition": "active: 59%"}
{"smiles": "COc1ccc(N2CCN(C(=O)C(C)n3c(=O)cc(C(F)(F)F)c4c(C)nn(C)c43)CC2)cc1", "note": "(configuration not stated)", "inhibition": "1.75%"}
{"smiles": "COc1ccc(OC)c(NC(=O)Cn2c(=O)n(Cc3nc(C)no3)c(=O)c3ccccc32)c1", "inhibition": "0.232%"}
{"smiles": "COc1ccc(Cl)cc1NC(=O)NCCc1c(C)nn(C)c1C", "inhibition": "1.02%"}
{"smiles": "O=C(CSC1=Nc2ccccc2N=C(c2ccc(F)cc2)C1)Nc1ccc(Cl)cc1", "inhibition": "15.2%"}
{"smiles": "CC(=O)Nc1ccc(NC(=O)c2cc(-c3cccs3)on2)cc1", "inhibition": "-2.63%"}
{"smiles": "CCc1cccc(C)c1NC(=O)c1ccc2c(c1)CCN2S(=O)(=O)CC", "inhibition": "4.73%"}
{"smiles": "Cc1ccc(Sc2c(C)nn(C(=O)c3ccc(Br)cc3)c2C)cc1", "inhibition": "-8.33%"}
{"smiles": "COc1ccc(Nc2ncnc3onc(C)c23)c(OC)c1", "inhibition": "0.891%"}
{"smiles": "COc1ccccc1NC(=O)CSc1oc(-c2ccccc2)nc1S(=O)(=O)c1ccccc1", "inhibition": "-0.302%"}
{"smiles": "COc1ccc2c(c1)c1c(c(=O)n(-c3cccc(C)c3)c(=O)n1CC(=O)NCC1CCCO1)n2C", "note": "(configuration not stated)", "inhibition": "2.76%"}
{"smiles": "COc1cc(-c2oc3ccc(C)cc3c(=O)c2O)cc(OC)c1OC", "inhibition": "4.57%"}
{"smiles": "Cc1cc2c(n1-c1ccc(C(=O)NCc3ccc(OC(C)C)cc3)cc1)CCCC2", "inhibition": "-7.07%"}
{"smiles": "Cc1ccc(NC(=S)NC2CCN(Cc3ccccc3)CC2)c(C)c1", "inhibition": "active: 46.9%"}
{"smiles": "Cc1cccc(Cc2c(C)nc3nc(SCc4ccccc4F)nn3c2C)c1", "inhibition": "-0.749%"}
{"smiles": "CCOc1ccccc1C(=O)Nc1ccc(S(=O)(=O)Nc2ncccn2)cc1", "inhibition": "-17.2%"}
{"smiles": "Cc1ccc(C(=S)N2CCN(Cc3ccccc3)CC2)cc1", "inhibition": "active: 65.1%"}
{"smiles": "CCN(CC)S(=O)(=O)c1cc(NC(=O)c2cc([N+](=O)[O-])ccc2N2CCOCC2)ccc1C", "inhibition": "active: 37.3%"}
{"smiles": "CCN1C(=O)c2ccccc2S(=O)c2ccc(C(=O)N3CCN(c4ccccc4OC)CC3)cc21", "note": "(configuration not stated)", "inhibition": "3.25%"}
{"smiles": "COc1cccc(CNC(=O)CCCCCn2c(=O)[nH]c3cc(OC)c(OC)cc3c2=O)c1", "inhibition": "0.104%"}
{"smiles": "CN(Cc1ccccc1)C(=O)c1cc(-c2cccc(Cl)c2)on1", "inhibition": "14%"}
{"smiles": "CS(=O)(=O)N(CCc1ccccc1)CC(=O)N1CCN(Cc2ccc3c(c2)OCO3)CC1", "inhibition": "active: 43.5%"}
{"smiles": "CCOC(=O)c1c(C)[nH]c(C)c1S(=O)(=O)NCC(=O)NCc1ccccc1Cl", "inhibition": "-1.77%"}
{"smiles": "COc1cc(C(CC(=O)Nc2cc(C)ccn2)N2Cc3ccccc3C2=O)cc(OC)c1OC", "note": "(configuration not stated)", "inhibition": "1.23%"}
{"smiles": "COCCSc1ccccc1C(=O)N1CCN(c2ccccc2OC)CC1", "inhibition": "active: 38.1%"}
{"smiles": "Cc1cc2c(n1-c1ccc(C(=O)NCCc3ccccc3)cc1)CCC(C)C2", "note": "(configuration not stated)", "inhibition": "10.5%"}
{"smiles": "CCCN(Cc1cccs1)C(=O)Nc1ccc(Br)cc1F", "inhibition": "11.8%"}
{"smiles": "COc1ccc2[nH]c(=O)c(CN(C(=O)c3cccc(Cl)c3)c3cccc(C)c3)cc2c1", "inhibition": "1.55%"}
{"smiles": "CCN1CCN(c2ncc3c(n2)CCN(Cc2ccc(OC)c(OC)c2)C3)CC1", "inhibition": "6.22%"}
{"smiles": "CC(C)c1cc(-c2nc(-c3ccc(Br)cc3)no2)n[nH]1", "inhibition": "2.67%"}
{"smiles": "COc1ccc2cc(CNc3ccc(C)cc3)c(=O)n(CC(=O)Nc3cccc(C(F)(F)F)c3)c2c1", "inhibition": "4.12%"}
{"smiles": "CC(=O)c1c(N2CCN(Cc3ccccc3)CC2)[nH]c(-c2ccccc2)nc1=S", "inhibition": "active: 72.9%"}
{"smiles": "C[C@H](NC(=O)OCc1ccccc1)c1nnc([C@H](C)NC(=O)OCc2ccccc2)o1", "inhibition": "active: 38.3%"}
{"smiles": "Cc1ccc(-c2nnc(Nc3ccc(O)cc3)c3ccccc23)cc1S(=O)(=O)N1CCCCC1", "inhibition": "-5.73%"}
{"smiles": "O=c1c2cccnc2n(Cc2cccc(F)c2)c(=O)n1Cc1ccccc1Cl", "inhibition": "-3.74%"}
{"smiles": "Cc1ccc(S(=O)(=O)c2cn(CC(=O)Nc3ccc4c(c3)OCO4)c3ccccc3c2=O)cc1C", "inhibition": "-2.11%"}
{"smiles": "CC(C)(C)C(=O)Nc1ccc2nc(SCC(=O)N3CCc4ccccc43)sc2c1", "inhibition": "12.3%"}
{"smiles": "COc1ccccc1-n1c(=O)c2c3c(sc2n(Cc2ccccc2F)c1=O)CN(C(C)=O)CC3", "inhibition": "-15.7%"}
{"smiles": "O=C(NCCS(=O)(=O)N1CCN(c2ccc(F)cc2)CC1)C1CC(=O)N(c2ccccc2)C1", "note": "(configuration not stated)", "inhibition": "-17.1%"}
{"smiles": "CCOc1ccc(NC(=O)c2cc3cc4cc(OC)ccc4nc3s2)cc1", "inhibition": "-0.408%"}
{"smiles": "Cc1cccc(NS(=O)(=O)c2ccc3c(c2)OCC(C(=O)N2CCCC2)O3)c1C", "note": "(configuration not stated)", "inhibition": "12.8%"}
{"smiles": "CCc1nn(CCCC(=O)NCc2cc(Br)ccc2OC)c(=O)c2cc3occc3n12", "inhibition": "3.89%"}
{"smiles": "CCc1cccc(C)c1NC(=O)Cn1cc2c(n1)CCCCC2", "inhibition": "3.65%"}
{"smiles": "COc1ccccc1NC(=O)Cn1nnc(C(=O)Nc2ccccc2Br)c1N", "inhibition": "-2.77%"}
{"smiles": "Cc1ccc(CNC(=O)c2cc(=O)c3cc(C)cc(C)c3o2)cc1", "inhibition": "18%"}
{"smiles": "COc1cc(CCC(C)NCc2ccccc2)ccc1O", "note": "(configuration not stated)", "inhibition": "active: 74.9%"}
{"smiles": "CC(=O)N1CCN(c2csc3ccc(Br)cc3c2=O)CC1", "inhibition": "-11.6%"}
{"smiles": "COC(=O)c1ccccc1NC(=O)c1cnc2sc(N3CCOCC3)nn2c1=O", "inhibition": "9.66%"}
{"smiles": "CCC(C)NC(=O)CSc1nc(-c2ccc(F)cc2)cc(C(F)(F)F)n1", "note": "(configuration not stated)", "inhibition": "6.95%"}
{"smiles": "Cc1ccc(NC(=O)N2CCN(C)c3ncccc32)cc1C", "inhibition": "-10.2%"}
{"smiles": "O=C(CN1C(=O)COc2ccc(S(=O)(=O)N3CCCCCC3)cc21)NCCc1ccccc1", "inhibition": "11%"}
{"smiles": "Cc1ccc(CN2C(=O)N(c3ccccc3)C(=O)C2CC(=O)Nc2ccccc2)cc1", "note": "(configuration not stated)", "inhibition": "-9.8%"}
{"smiles": "COc1cc(OC)c(N(C)C(=O)Cn2ncc3c(=O)oc4ccccc4c32)cc1Cl", "inhibition": "-6.31%"}
{"smiles": "COC(=O)c1ccccc1NC(=O)N1CCC(n2c(C)nc3cccnc32)CC1", "inhibition": "13.8%"}
{"smiles": "COCCNC(=O)c1c(NC(=O)c2cc(=O)c3cc(Cl)ccc3o2)sc2c1CCCC2", "inhibition": "6.77%"}
{"smiles": "CC(=O)c1ccc(C(=O)N(Cc2cccnc2)c2nc3c(C)c(C)ccc3s2)cc1", "inhibition": "5.09%"}
{"smiles": "CCOC(=O)N1CCN(C(=O)c2ccc3c(c2)N(Cc2cccc(Cl)c2)C(=O)c2ccccc2S3=O)CC1", "note": "(configuration not stated)", "inhibition": "-9.73%"}
{"smiles": "Cc1ccc(-c2nc3ccccn3c2Nc2ccc3c(c2)OCCO3)o1", "inhibition": "2.77%"}
{"smiles": "O=C1CN(C(=O)COc2ccc(Cl)cc2)C(c2ccc(F)cc2)c2cc(Cl)ccc2N1", "note": "(configuration not stated)", "inhibition": "-10.3%"}
{"smiles": "O=C(Nc1ccc(Br)cc1)C1CCN(c2ncccn2)CC1", "inhibition": "-15%"}
{"smiles": "COCCOC(=O)c1c(C)oc2ccc(OCc3ccccc3)cc12", "inhibition": "active: 64.5%"}
